Results from PubChem BioAssay AID504466 (National Center for Advancing Translational Sciences (NCATS), 2011).
Screen size: about 330,000 compounds; about 4,200 (1.3%) were called active. The inconclusive results got no clear call from the source; some entries with a clear call stand among them for comparison. The call rests on the fitted dose curve; in most records, active means well fitted activation curve with a large enough effect; inconclusive means small, poorly fitted or top-dose-only effect; inactive means no such curve, though single readings can be large or run the other way. Where the call is inconclusive, the potency comes from a doubtful curve fit.

test: qHTS screen for small molecules that induce genotoxicity in human embryonic kidney (HEK293T) cells expressing luciferase-tagged ELG1; conditions: HEK293T ELG1-luciferase reporter, luminescence, 16 h; series mostly up to 46 µM; further: nearly all actives have a fitted effect of over 60% in size
Method in brief: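 HEK293T cells expressing luciferase-tagged ELG1 were exposed to compound or DMSO vehicle for 16 hr at 37 °C and 5% CO2. Luciferase activity was then measured with ONE-Glo after 30 min at room temperature.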
Potency means the concentration at half of the fitted maximal effect; tags describe the fitted curve by direction and shape.

Structure (SMILES)	Potency
CCCCn1cnc2c(sc3nc4c(cc32)CSC(C)(C)C4)c1=O	inconclusive: 1.84 µM [activator, full curve]
O=C(c1ccc(COCC(F)(F)F)cc1)N1CCN(c2ccccn2)CC1	inconclusive: 32.6 µM [activator, single point]
Cc1cnc(C(=O)Nc2nnc(C)s2)cn1	inactive
CC(C)c1ccc(NC(=O)NCc2ccccn2)cc1	inconclusive: 20.6 µM [activator, single point]
Cc1nc2scc(-c3ccccc3)c2c(=O)n1N	inactive
Nc1ccc2nc(SCC(=O)Nc3ccc(N4CCOCC4)c(Cl)c3)sc2c1	inconclusive: 23.1 µM [activator, partial curve, poor fit]
Fc1ccc(CSc2nc3ncccc3[nH]2)cc1	inconclusive: 16.4 µM [activator, partial curve, poor fit]
Cc1[nH]n(-c2ccccc2)c(=O)c1N=Nc1ccccc1	inconclusive: 5.8 µM [activator, partial curve]
COc1ccccc1C(=O)Nc1cccc(SC)c1	inconclusive: 25.9 µM [activator, single point]
CC(=O)Oc1ccc(NC(=O)C2CCCCC2)c(C(=O)O)c1	inactive
CCCC(=O)Nc1nc(-c2ccc(OC)cc2)cs1	inconclusive: 7.08 µM [activator, partial curve]
COC(=O)c1ccc(C)c(NS(=O)(=O)c2ccc(OC)cc2)c1	inconclusive: 10 µM [activator, partial curve, poor fit]
O=C(/C=C/c1ccc(-c2ccc(F)cc2)o1)N1CCCC1	inconclusive: 20.6 µM [activator, partial curve]
Cc1ccc2oc(-c3cccc(NC(=O)c4ccc(Br)o4)c3)nc2c1	inconclusive: 11.2 µM [activator, partial curve]
CCOC(=O)COc1ccccc1/C=C1\NC(=O)NC1=O	inconclusive: 23.1 µM [activator, single point]
O=C(CC(Nc1ccccc1)c1ccc(F)cc1)c1ccccc1 (stereo not given)	inconclusive: 25.9 µM [activator, partial curve, poor fit]
COc1cccc2c(=O)n(CC(=O)Nc3ccc(F)cc3)ccc12	inconclusive: 32.6 µM [activator, partial curve, poor fit]
Cc1nc(NC(=O)/C=C/c2ccccc2)sc1C(=O)N1CCCCC1	inactive
Fc1ccc(-c2nc3ccccc3[nH]2)cc1	inconclusive: 16.4 µM [activator, partial curve]
CC(=O)Nc1ccc(Nc2ncnc3c2cnn3-c2ccccc2)cc1	inactive
